# Measured values reported in the supplement of paper PMC12230231.
# Tested on: SIVsab (simian immunodeficiency virus of sabaeus monkeys), single-cycle GFP reporter, in CRFK cells
# Assay: enrichment among infected cells over input (fold); higher = weaker restriction
# Details: library: human / rhesus combinations
# Protocol: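 Pools of CRFK cells expressing variants of the TRIM5α v1 loop were challenged with the single-cycle reporter, sorted by GFP and sequenced; mean of two replicates.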
row,Sequence,enrichment
1,"MASGILLNVKEEVTCPICLELLTEPLSLHCGHSFCQACITANHKKSMLYKEGERSCPVCRISYQPENIQPNRHVANIVEKLREVKLSPEEGQKVDHCARHGEKLLLFCQEDSKVICWLCERSQEHRGHHTFLMEEVAQEYHVKLQTALEMLRQKQQEAEKLEADIREEKASWKIQIDYDKTNVSADFEQLREILDWEESNELQNLEKEEEDILKSLTKSETEMVQQTQYMRELISELEHRLQGSMMDLLQGVDGIIKRIENMTLKKPKTFHKNQRRVFRAPDLKGMLDMFRELTDARRYWVDVTLAPNNISHAVIAEDKRQVSSRNPQIMYGARGTLFTFPSFTNFNYCTGVLGSQSITSGKHYWEVDVSKKSAWILGVCAGFQSDAMYNIEQNENYQPKYGYWVIGLQEGVKYSVFQDGSSHTPFAPFIVPLSVIICPDRVGVFVDYEACTVSFFNITNHGFLIYKFSQCSFSKPVFPYLNPRKCTVPMTLCSPSS [rhesus TRIM5α, 332-344 = GARGTLFTFPSFT]",0.048 ± 0.036
2,"MASGILLNVKEEVTCPICLELLTEPLSLHCGHSFCQACITANHKKSMLYKEGERSCPVCRISYQPENIQPNRHVANIVEKLREVKLSPEEGQKVDHCARHGEKLLLFCQEDSKVICWLCERSQEHRGHHTFLMEEVAQEYHVKLQTALEMLRQKQQEAEKLEADIREEKASWKIQIDYDKTNVSADFEQLREILDWEESNELQNLEKEEEDILKSLTKSETEMVQQTQYMRELISELEHRLQGSMMDLLQGVDGIIKRIENMTLKKPKTFHKNQRRVFRAPDLKGMLDMFRELTDARRYWVDVTLAPNNISHAVIAEDKRQVSSRNPQIMYQARGTLFQSFVNFNYCTGVLGSQSITSGKHYWEVDVSKKSAWILGVCAGFQSDAMYNIEQNENYQPKYGYWVIGLQEGVKYSVFQDGSSHTPFAPFIVPLSVIICPDRVGVFVDYEACTVSFFNITNHGFLIYKFSQCSFSKPVFPYLNPRKCTVPMTLCSPSS [rhesus TRIM5α, 332-344 = QARGTLFQSFV]",0.688 ± 0.6
3,"MASGILLNVKEEVTCPICLELLTEPLSLHCGHSFCQACITANHKKSMLYKEGERSCPVCRISYQPENIQPNRHVANIVEKLREVKLSPEEGQKVDHCARHGEKLLLFCQEDSKVICWLCERSQEHRGHHTFLMEEVAQEYHVKLQTALEMLRQKQQEAEKLEADIREEKASWKIQIDYDKTNVSADFEQLREILDWEESNELQNLEKEEEDILKSLTKSETEMVQQTQYMRELISELEHRLQGSMMDLLQGVDGIIKRIENMTLKKPKTFHKNQRRVFRAPDLKGMLDMFRELTDARRYWVDVTLAPNNISHAVIAEDKRQVSSRNPQIMYQARGTRFQSLTNFNYCTGVLGSQSITSGKHYWEVDVSKKSAWILGVCAGFQSDAMYNIEQNENYQPKYGYWVIGLQEGVKYSVFQDGSSHTPFAPFIVPLSVIICPDRVGVFVDYEACTVSFFNITNHGFLIYKFSQCSFSKPVFPYLNPRKCTVPMTLCSPSS [rhesus TRIM5α, 332-344 = QARGTRFQSLT]",2.51 ± 2.8
4,"MASGILLNVKEEVTCPICLELLTEPLSLHCGHSFCQACITANHKKSMLYKEGERSCPVCRISYQPENIQPNRHVANIVEKLREVKLSPEEGQKVDHCARHGEKLLLFCQEDSKVICWLCERSQEHRGHHTFLMEEVAQEYHVKLQTALEMLRQKQQEAEKLEADIREEKASWKIQIDYDKTNVSADFEQLREILDWEESNELQNLEKEEEDILKSLTKSETEMVQQTQYMRELISELEHRLQGSMMDLLQGVDGIIKRIENMTLKKPKTFHKNQRRVFRAPDLKGMLDMFRELTDARRYWVDVTLAPNNISHAVIAEDKRQVSSRNPQIMYGARGTRYTFPTLTNFNYCTGVLGSQSITSGKHYWEVDVSKKSAWILGVCAGFQSDAMYNIEQNENYQPKYGYWVIGLQEGVKYSVFQDGSSHTPFAPFIVPLSVIICPDRVGVFVDYEACTVSFFNITNHGFLIYKFSQCSFSKPVFPYLNPRKCTVPMTLCSPSS [rhesus TRIM5α, 332-344 = GARGTRYTFPTLT]",0.816 ± 0.15
5,"MASGILLNVKEEVTCPICLELLTEPLSLHCGHSFCQACITANHKKSMLYKEGERSCPVCRISYQPENIQPNRHVANIVEKLREVKLSPEEGQKVDHCARHGEKLLLFCQEDSKVICWLCERSQEHRGHHTFLMEEVAQEYHVKLQTALEMLRQKQQEAEKLEADIREEKASWKIQIDYDKTNVSADFEQLREILDWEESNELQNLEKEEEDILKSLTKSETEMVQQTQYMRELISELEHRLQGSMMDLLQGVDGIIKRIENMTLKKPKTFHKNQRRVFRAPDLKGMLDMFRELTDARRYWVDVTLAPNNISHAVIAEDKRQVSSRNPQIMYQARGTLYQSLVNFNYCTGVLGSQSITSGKHYWEVDVSKKSAWILGVCAGFQSDAMYNIEQNENYQPKYGYWVIGLQEGVKYSVFQDGSSHTPFAPFIVPLSVIICPDRVGVFVDYEACTVSFFNITNHGFLIYKFSQCSFSKPVFPYLNPRKCTVPMTLCSPSS [rhesus TRIM5α, 332-344 = QARGTLYQSLV]",0.859 ± 0.28
6,"MASGILLNVKEEVTCPICLELLTEPLSLHCGHSFCQACITANHKKSMLYKEGERSCPVCRISYQPENIQPNRHVANIVEKLREVKLSPEEGQKVDHCARHGEKLLLFCQEDSKVICWLCERSQEHRGHHTFLMEEVAQEYHVKLQTALEMLRQKQQEAEKLEADIREEKASWKIQIDYDKTNVSADFEQLREILDWEESNELQNLEKEEEDILKSLTKSETEMVQQTQYMRELISELEHRLQGSMMDLLQGVDGIIKRIENMTLKKPKTFHKNQRRVFRAPDLKGMLDMFRELTDARRYWVDVTLAPNNISHAVIAEDKRQVSSRNPQIMYGARGTLYTFPTFTNFNYCTGVLGSQSITSGKHYWEVDVSKKSAWILGVCAGFQSDAMYNIEQNENYQPKYGYWVIGLQEGVKYSVFQDGSSHTPFAPFIVPLSVIICPDRVGVFVDYEACTVSFFNITNHGFLIYKFSQCSFSKPVFPYLNPRKCTVPMTLCSPSS [rhesus TRIM5α, 332-344 = GARGTLYTFPTFT]",1.73 ± 1.5
7,"MASGILLNVKEEVTCPICLELLTEPLSLHCGHSFCQACITANHKKSMLYKEGERSCPVCRISYQPENIQPNRHVANIVEKLREVKLSPEEGQKVDHCARHGEKLLLFCQEDSKVICWLCERSQEHRGHHTFLMEEVAQEYHVKLQTALEMLRQKQQEAEKLEADIREEKASWKIQIDYDKTNVSADFEQLREILDWEESNELQNLEKEEEDILKSLTKSETEMVQQTQYMRELISELEHRLQGSMMDLLQGVDGIIKRIENMTLKKPKTFHKNQRRVFRAPDLKGMLDMFRELTDARRYWVDVTLAPNNISHAVIAEDKRQVSSRNPQIMYGARGTRYTFPSFTNFNYCTGVLGSQSITSGKHYWEVDVSKKSAWILGVCAGFQSDAMYNIEQNENYQPKYGYWVIGLQEGVKYSVFQDGSSHTPFAPFIVPLSVIICPDRVGVFVDYEACTVSFFNITNHGFLIYKFSQCSFSKPVFPYLNPRKCTVPMTLCSPSS [rhesus TRIM5α, 332-344 = GARGTRYTFPSFT]",1.14 ± 0.34
8,"MASGILLNVKEEVTCPICLELLTEPLSLHCGHSFCQACITANHKKSMLYKEGERSCPVCRISYQPENIQPNRHVANIVEKLREVKLSPEEGQKVDHCARHGEKLLLFCQEDSKVICWLCERSQEHRGHHTFLMEEVAQEYHVKLQTALEMLRQKQQEAEKLEADIREEKASWKIQIDYDKTNVSADFEQLREILDWEESNELQNLEKEEEDILKSLTKSETEMVQQTQYMRELISELEHRLQGSMMDLLQGVDGIIKRIENMTLKKPKTFHKNQRRVFRAPDLKGMLDMFRELTDARRYWVDVTLAPNNISHAVIAEDKRQVSSRNPQIMYGAPGTLFQSFTNFNYCTGVLGSQSITSGKHYWEVDVSKKSAWILGVCAGFQSDAMYNIEQNENYQPKYGYWVIGLQEGVKYSVFQDGSSHTPFAPFIVPLSVIICPDRVGVFVDYEACTVSFFNITNHGFLIYKFSQCSFSKPVFPYLNPRKCTVPMTLCSPSS [rhesus TRIM5α, 332-344 = GAPGTLFQSFT]",0.075 ± 0.1
9,"MASGILLNVKEEVTCPICLELLTEPLSLHCGHSFCQACITANHKKSMLYKEGERSCPVCRISYQPENIQPNRHVANIVEKLREVKLSPEEGQKVDHCARHGEKLLLFCQEDSKVICWLCERSQEHRGHHTFLMEEVAQEYHVKLQTALEMLRQKQQEAEKLEADIREEKASWKIQIDYDKTNVSADFEQLREILDWEESNELQNLEKEEEDILKSLTKSETEMVQQTQYMRELISELEHRLQGSMMDLLQGVDGIIKRIENMTLKKPKTFHKNQRRVFRAPDLKGMLDMFRELTDARRYWVDVTLAPNNISHAVIAEDKRQVSSRNPQIMYQAPGTRYTFPSFVNFNYCTGVLGSQSITSGKHYWEVDVSKKSAWILGVCAGFQSDAMYNIEQNENYQPKYGYWVIGLQEGVKYSVFQDGSSHTPFAPFIVPLSVIICPDRVGVFVDYEACTVSFFNITNHGFLIYKFSQCSFSKPVFPYLNPRKCTVPMTLCSPSS [rhesus TRIM5α, 332-344 = QAPGTRYTFPSFV]",1.68 ± 1.3
10,"MASGILLNVKEEVTCPICLELLTEPLSLHCGHSFCQACITANHKKSMLYKEGERSCPVCRISYQPENIQPNRHVANIVEKLREVKLSPEEGQKVDHCARHGEKLLLFCQEDSKVICWLCERSQEHRGHHTFLMEEVAQEYHVKLQTALEMLRQKQQEAEKLEADIREEKASWKIQIDYDKTNVSADFEQLREILDWEESNELQNLEKEEEDILKSLTKSETEMVQQTQYMRELISELEHRLQGSMMDLLQGVDGIIKRIENMTLKKPKTFHKNQRRVFRAPDLKGMLDMFRELTDARRYWVDVTLAPNNISHAVIAEDKRQVSSRNPQIMYQARGTLYTFPTLTNFNYCTGVLGSQSITSGKHYWEVDVSKKSAWILGVCAGFQSDAMYNIEQNENYQPKYGYWVIGLQEGVKYSVFQDGSSHTPFAPFIVPLSVIICPDRVGVFVDYEACTVSFFNITNHGFLIYKFSQCSFSKPVFPYLNPRKCTVPMTLCSPSS [rhesus TRIM5α, 332-344 = QARGTLYTFPTLT]",0.781 ± 0.076
11,"MASGILLNVKEEVTCPICLELLTEPLSLHCGHSFCQACITANHKKSMLYKEGERSCPVCRISYQPENIQPNRHVANIVEKLREVKLSPEEGQKVDHCARHGEKLLLFCQEDSKVICWLCERSQEHRGHHTFLMEEVAQEYHVKLQTALEMLRQKQQEAEKLEADIREEKASWKIQIDYDKTNVSADFEQLREILDWEESNELQNLEKEEEDILKSLTKSETEMVQQTQYMRELISELEHRLQGSMMDLLQGVDGIIKRIENMTLKKPKTFHKNQRRVFRAPDLKGMLDMFRELTDARRYWVDVTLAPNNISHAVIAEDKRQVSSRNPQIMYQARGTRYTFQTLVNFNYCTGVLGSQSITSGKHYWEVDVSKKSAWILGVCAGFQSDAMYNIEQNENYQPKYGYWVIGLQEGVKYSVFQDGSSHTPFAPFIVPLSVIICPDRVGVFVDYEACTVSFFNITNHGFLIYKFSQCSFSKPVFPYLNPRKCTVPMTLCSPSS [rhesus TRIM5α, 332-344 = QARGTRYTFQTLV]",0.815 ± 0.28
12,"MASGILLNVKEEVTCPICLELLTEPLSLHCGHSFCQACITANHKKSMLYKEGERSCPVCRISYQPENIQPNRHVANIVEKLREVKLSPEEGQKVDHCARHGEKLLLFCQEDSKVICWLCERSQEHRGHHTFLMEEVAQEYHVKLQTALEMLRQKQQEAEKLEADIREEKASWKIQIDYDKTNVSADFEQLREILDWEESNELQNLEKEEEDILKSLTKSETEMVQQTQYMRELISELEHRLQGSMMDLLQGVDGIIKRIENMTLKKPKTFHKNQRRVFRAPDLKGMLDMFRELTDARRYWVDVTLAPNNISHAVIAEDKRQVSSRNPQIMYQAPGTLYTFQTFVNFNYCTGVLGSQSITSGKHYWEVDVSKKSAWILGVCAGFQSDAMYNIEQNENYQPKYGYWVIGLQEGVKYSVFQDGSSHTPFAPFIVPLSVIICPDRVGVFVDYEACTVSFFNITNHGFLIYKFSQCSFSKPVFPYLNPRKCTVPMTLCSPSS [rhesus TRIM5α, 332-344 = QAPGTLYTFQTFV]",2.23 ± 2

# ± gives the standard deviation of the averaged measurements. Restriction of a single-cycle SIVsab GFP reporter by TRIM5α v1-loop variants in CRFK cells. Human variants: read share among cells still uninfected after two challenges over input, higher = gained restriction. Rhesus variants: share among infected cells over input, higher = lost restriction. Reporter dose not given per row. No active / inactive call per row; the paper calls a change when both replicates lie above its controls (mean + 2 SD of stop or wild-type variants, or the top frameshift score). Residues outside the varied loop are taken from Swiss-Prot. The paper reads the human single-substitution scores as noise; they and the rhesus combinations repeat poorly (rank correlation 0.3 to 0.4), indel scores repeat only for the top variants, rhesus substitutions well (0.9).
